# Test results from PubChem BioAssay AID662 (National Center for Advancing Translational Sciences (NCATS), 2007).
# Among all 71,000 compounds or so, about 1,800 (2.5%) were called active. The shares of active, inactive and inconclusive entries below differ from those in the screen. Calls follow the shape of the dose curve; as a rule, active = well fitted activation curve with a large enough effect in the signal ratio, with a control signal flat (not every such curve was filed as active); inconclusive = small, poorly fitted or top-dose-only effect, or effect the other way, or a change in a side signal; inactive = flat fitted curve, though single readings scatter; the % refers to the signal ratio. A potency beside an inconclusive call is a rough fit, not a confirmed value.
# Test: Cell signaling CRE-BLA (Fsk stim); as to activity change, negative = inhibition: % of control where 0% means no effect
# Conditions: CHO CRE-bla reporter (cAMP response element driving beta-lactamase), forskolin EC10, beta-lactamase ratio; activity change, negative = inhibition: at 38.2 µM (top of the series) unless noted
# Method in brief: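 CHO CRE-bla cells, overnight plating in Opti-MEM with 0.5% dialyzed FBS; cpd titration + EC10 NKH 477, 3 h 37 °C; CCF4 2 h RT; ex 405/em 460 vs 530 ratio → %Activity, AC50.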
# Potency is read from the fitted curve at half-maximal effect; tags tell the direction and shape of the fitted curve.
SMILES,"activity change, negative = inhibition",Potency
COc1cc(NC(=O)c2ccc(Cl)cc2)c(OC)cc1NC(=O)CN1CCOCC1,inconclusive: 1.57%,
Cn1c2c(c(=O)n(C)c1=O)C(c1ccc(Br)cc1)Nc1ccccc1O2 (stereo not given),inconclusive: 9.54%,
CN(C(=O)COC(=O)c1ccccc1Nc1ccccc1)C1CCS(=O)(=O)C1 (stereo not given),,"inconclusive: 0.398 µM [rising, full curve, poor fit]"
COC(=O)c1ccc(C(NC(=O)OCc2ccccc2)/C(F)=C/[C@@H](C)C(=O)NCCc2c[nH]c3ccc(OC)cc23)cc1 (stereo not given in full),inconclusive: -12.9%,
CC1CCCCC1NC(=O)C1CCN(S(=O)(=O)N2CCOCC2)CC1 (stereo not given),inconclusive: -15.8%,
Cc1ccc(NS(=O)(=O)c2cccc(C(=O)OCC(=O)NCc3ccco3)c2)cc1,,"inconclusive: 5.01 µM [falling, single point]"
CCOc1ccc(N(CC(=O)NCc2ccco2)S(=O)(=O)c2ccc(OC)c(OC)c2)cc1,inconclusive: 13.5% [at 7.6 µM],
COC(=O)c1ccc(-c2cc(C(=O)O)c3cc4c(cc3n2)OCCO4)cc1,,"inconclusive: 12.6 µM [rising, partial curve]"
Nc1ccc2[nH]cc(CCC(=O)O)c2c1,inconclusive: -1.82% [at 7.6 µM],
Cc1cccc(Nc2ncnc3nc[nH]c23)c1C,,"inconclusive: 12.6 µM [rising, single point]"
N#Cc1ccc(CN2CC[C@@]3(CCCN(C(=O)c4cccc(F)c4)C3)C2)cc1,,inactive
CCOC(=O)c1ccc(NS(=O)(=O)c2cc(C)ccc2OC)cc1,inconclusive: -10.7%,
COc1ccc(NC(=O)c2ccc(-c3ccc(-c4noc(C)n4)cc3C)cc2)cc1OCCN(C)C,,inactive
CCCn1c(C)nc2c(N(CCOC)CCOC)nc(C)nc21,,active: 12.6 µM
O=C(NCCc1cn2ccccc2n1)c1ccc(Br)o1,inconclusive: 4.82%,
COc1cccc(Nc2ncc3nc(-c4ccccc4)c(=O)n(C4CC4)c3n2)c1,,"inconclusive: 2.51 µM [rising, full curve]"
Nc1nc(SCc2ccccn2)c2ncn(C3CCCC3)c2n1,,"inconclusive: 3.98 µM [rising, single point]"
COc1ccc(C2C(C#N)=C(N)OC3=C2C(=O)CCC3)c(OC)c1OC (stereo not given),,inactive
CCC(C)NC(=O)C1CCN(S(=O)(=O)N2CCCC2)CC1 (stereo not given),,"inconclusive: 20 µM [rising, single point]"
Cn1c(SCC(=O)N2CCCCCC2)nc2c([nH]c3ccccc32)c1=O,,inactive
COc1ccc(C(C)=O)c2c(O)cccc12,,inactive
O=C(Cn1c(=O)oc2ccccc21)N1CCN(c2ccc(N3CCOCC3)nn2)CC1,,inactive

SMILES,"activity change, negative = inhibition",Potency
CCNc1nc(SCCOc2ccccc2)nc(N(C)C)n1,,active: 3.98 µM
CCOC(=O)c1cnc2sc3c(n2c1=O)CCCC3,,"inconclusive: 12.6 µM [rising, single point]"
COc1ccc(C2c3c(oc4ccccc4c3=O)C(=O)N2CCCN2CCOCC2)cc1 (stereo not given),,"inconclusive: 3.16 µM [rising, single point]"
CCOC(=O)C1=C(CSc2nc(C)ccc2C#N)OC(N)=C(C#N)C1c1cccc(OC)c1OC (stereo not given),,"inconclusive: 12.6 µM [rising, single point]"
Cc1ccc(-c2cn(S(=O)(=O)c3cccc4nsnc34)nc2N)cc1,,inactive
Cc1ccc(NC(=O)Cn2c(=O)n(CCCC(=O)NCc3ccco3)c(=O)c3ccccc32)cc1,inconclusive: 10.8%,
O=c1c2cnn(-c3ccccc3)c2ncn1/N=C/c1ccncc1,inconclusive: -12.4%,
COc1ccc(Nc2nc3ccccc3nc2C)cc1,inconclusive: 25.5%,
Cc1nn(C(=O)c2cc3sccc3[nH]2)c(C)c1C,,inactive
O=C(Nc1ccccn1)c1ccc2ccccc2n1,,"inconclusive: 3.16 µM [falling, partial curve]"
O=C(NCc1cccs1)C1CCN(S(=O)(=O)c2ccc3c(c2)OCCO3)CC1,,"inconclusive: 12.6 µM [rising, single point]"
N#CCSc1nc2c(cc1C#N)CCCC2,,active: 12.6 µM
CCN(Cc1cc2ccc(C)cc2[nH]c1=O)C(=O)c1cccnc1,,inactive
O=C(COc1nc2ccccc2nc1N1CCOCC1)N1CCc2ccccc21,,inactive
Cn1c(=O)c2cnc(N3CCOCC3)nc2n(C)c1=O,,"inconclusive: 3.16 µM [falling, single point]"
Cc1ccc(C2C=C(c3ccc4c(c3)OCO4)Nc3ncnn32)cc1 (stereo not given),inconclusive: -76.3% [fluorescent],
Cc1nc2cnc(Nc3ccccc3)nc2n(Cc2ccc(F)cc2)c1=O,inconclusive: -22.2% [fluorescent],
CCCCCCNC(=O)C(C#N)c1nc2ccccc2nc1N1CCOCC1 (stereo not given),inconclusive: -9.06%,
CCSc1nc(=O)n(-c2ccccc2)c(C)c1C(C)=O,inconclusive: 18.1% [at 7.6 µM],
COc1ccc(C(=O)N2CCN(S(=O)(=O)c3ccccc3)CC2)c(OC)c1,inconclusive: -6.66%,
O=C(CN1C(=O)CSC1=O)c1ccccc1,,inactive
CCN1CCN(C(=O)CCCCCn2c(=O)[nH]c3cc(C(=O)OC)ccc3c2=O)CC1,,inactive

SMILES,"activity change, negative = inhibition",Potency
CCCCn1c(CN2CCN(c3ccc(F)cc3)CC2)nc2c1c(=O)n(C)c(=O)n2C,,inactive
COc1ccc(CCn2c(N3CCN(Cc4ccccc4)CC3)nc3c2c(=O)[nH]c(=O)n3C)cc1,inconclusive: 26.5%,
Cc1nnc(SCC(=O)NCCN2C(=O)CSC2=O)s1,inconclusive: -3.65%,
CC(=O)N1CC2(CC2)CC1c1ccccc1 (stereo not given),,active: 3.16 µM
Cc1cc(NC(=O)CSc2nc3c(c(=O)n2Cc2ccccc2)SC(C)C3)no1 (stereo not given),,"inconclusive: 10 µM [rising, single point]"
FC(F)(F)c1cccnc1N1CCN(c2ncnc3nc[nH]c23)CC1,inconclusive: 25.5%,
Nc1nc(-c2ccc(Cl)cc2)nn1C(=O)c1cccnc1,,inactive
Nc1ccc(S(=O)(=O)c2cccc(N)c2)cc1,inconclusive: 10.8%,
CC1Cc2ccccc2N1c1ncnc2nc[nH]c12 (stereo not given),,"inconclusive: 12.6 µM [rising, single point]"
O=c1c(-c2ccc(Cl)cc2)nc2cncnc2n1Cc1ccccc1Cl,,"inconclusive: 3.16 µM [rising, partial curve]"
CCc1ccccc1NC(=O)c1cnccn1,inconclusive: 13.3%,
CCN(CC)c1ccc2c(Cl)c(Br)c(=O)oc2c1,,"inconclusive: 25.1 µM [rising, single point]"
Cc1ccc(S(=O)(=O)N(C)Cc2cc3ccccc3[nH]c2=O)cc1,,inactive
Cc1cc(N2CCCCC2)n2ncc(-c3ccccc3)c2n1,,"inconclusive: 25.1 µM [rising, single point]"
O=C(Nc1ccc2c(c1)CCC2)C1CCN(c2c3c(nc4ncnn24)CCC3)CC1,,"inconclusive: 20 µM [falling, single point]"
COC(=O)NC1CSCC1OC(=O)CN1C(=O)c2ccccc2C1=O (stereo not given),inconclusive: 13.3%,
CCOC(=O)C1=C(C)NC(=O)NC1C (stereo not given),,inactive
COc1ccc(-c2nc(C#N)c(NCCCN(C)C)o2)cc1OC,,inactive
Cc1ccc(N2CC(C(=O)Nc3ccc4c(c3)OCO4)CC2=O)cc1 (stereo not given),,inactive
N[C@@H](C(=O)O)c1ccc(P(=O)(O)O)cc1,,inactive
COC(=O)c1ccc(COc2nc(C)cc(C)c2C#N)o1,,"inconclusive: 15.8 µM [rising, partial curve]"
COc1ccccc1-c1nnc(Nc2nc3c(OC)cccc3s2)o1,,"inconclusive: 0.398 µM [rising, partial curve]"

SMILES,"activity change, negative = inhibition",Potency
CCn1c(=N)c(C(=O)NCc2cccnc2)cc2c(=O)n3cccc(C)c3nc21,inconclusive: 16.1%,
CCOC(=O)c1ccc2nc(C)c3c(c2c1)OC(C)C3 (stereo not given),,inactive
O=C(Cn1nc(Cc2cccnc2)c2ccccc2c1=O)N1CCN(c2ccccn2)CC1,,inactive
COc1cc2c(cc1OC)-c1cc(NCc3ccccn3)nc(=O)n1CC2,,active: 12.6 µM
COc1ccc2[nH]cc(CCNc3nc(-c4ccoc4)nc4ccccc34)c2c1,inconclusive: 21.5%,
CC1=Nc2ccccc2N=C(NC(=O)CSc2nnnn2-c2ccccc2)C1c1ccccc1 (stereo not given),inconclusive: -14.6%,
COc1ccc(CN2CC(C(=O)NCCCN3CCOCC3)CC2=O)cc1 (stereo not given),inconclusive: 5.25%,
CSCC[C@H](NC(=O)OC(C)(C)C)c1nnc(SCC(=O)Nc2ccc(C)cc2C)o1,,inactive
O=C(O)C1C2C=CC3(CN(C/C=C/c4ccccc4)C(=O)C13)O2 (stereo not given),inconclusive: 15.3% [at 7.6 µM],
COC(=O)c1ccc(OCC(O)CN(CC(C)C)CC(C)C)cc1 (stereo not given),,inactive
FC(F)(F)c1ccccc1-n1ccnc1,inconclusive: -8.9%,
CC(C)=O,,inactive
COCCNC(=O)[C@H]1C[C@@H]1[C@H](NP(=O)(c1ccccc1)c1ccccc1)c1ccccc1,,inactive
Cc1ccc(CCNC(=O)C2CCN(S(=O)(=O)c3ccc4c(c3)CCC(=O)N4)CC2)cc1,,inactive
CCC(=O)Nc1ccccc1N1CCN(S(C)(=O)=O)CC1,inconclusive: -3.4%,
CCOC(=O)C1=C(C)Nc2ncnn2C1c1cc(Br)ccc1F (stereo not given),inconclusive: 24.9%,
Nc1ccccc1SCc1cn2cccnc2n1,,inactive
COc1ccc(OC)c(N=Cc2c(O)[nH]c3ccccc23)c1,,"inconclusive: 12.6 µM [rising, partial curve]"
Fc1ccc(-c2cc3nc(-c4ccccc4)cc(N4CCOCC4)n3n2)cc1,inconclusive: 10.9%,
